In the supplement of paper PMC8728848:
The list shows a part of the results.

Assays:
Assay in all cases: glycan array binding signal (z-score within array); higher = stronger binding
Conditions in all cases: glycan notation: IUPAC condensed, linker removed
[1] = biological target: Gal(b1-4)Glc6S
How it was run: (§1)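 The Consortium for Functional Glycomics database supplied 3228 glycan arrays, of which those lacking an available protein sequence were dropped. The binding signal, a within-array Z-score, was averaged across arrays of the same protein sequence and across linkers. Negative scores can be read as non-binding.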

[2] = biological target: Gal(b1-4)GlcNAc
How it was run: as §1

[3] = biological target: Gal(b1-4)GlcNAc(a1-6)Gal(b1-4)GlcNAc
How it was run: as §1

[4] = biological target: Gal(b1-4)GlcNAc(b1-2)Man
How it was run: as §1

[5] = biological target: Gal(b1-4)GlcNAc(b1-2)Man(a1-3)Man(b1-4)GlcNAc(b1-4)GlcNAc
How it was run: as §1

[6] = biological target: Gal(b1-4)GlcNAc(b1-2)Man(a1-3)[Gal(b1-4)GlcNAc(b1-2)Man(a1-6)]Man(b1-4)GlcNAc(b1-4)GlcNAc
How it was run: as §1

[7] = biological target: Gal(b1-4)GlcNAc(b1-2)Man(a1-3)[Gal(b1-4)GlcNAc(b1-2)Man(a1-6)]Man(b1-4)GlcNAc(b1-4)[Fuc(a1-6)]GlcNAc
How it was run: as §1

[8] = biological target: Gal(b1-4)GlcNAc(b1-2)Man(a1-3)[Gal(b1-4)GlcNAc(b1-2)Man(a1-6)][Gal(b1-4)GlcNAc(b1-4)]Man(b1-4)GlcNAc(b1-4)[Fuc(a1-6)]GlcNAc
How it was run: as §1

[9] = biological target: Gal(b1-4)GlcNAc(b1-2)Man(a1-3)[Gal(b1-4)GlcNAc(b1-2)Man(a1-6)][GlcNAc(b1-4)]Man(b1-4)GlcNAc(b1-4)[Fuc(a1-6)]GlcNAc
How it was run: as §1

[10] = biological target: Gal(b1-4)GlcNAc(b1-2)Man(a1-3)[GlcNAc(b1-2)Man(a1-6)]Man(b1-4)GlcNAc(b1-4)GlcNAc
How it was run: as §1

[11] = biological target: Gal(b1-4)GlcNAc(b1-2)Man(a1-3)[GlcNAc(b1-4)][Gal(b1-4)GlcNAc(b1-2)Man(a1-6)]Man(b1-4)GlcNAc(b1-4)GlcNAc
How it was run: as §1

[12] = biological target: Gal(b1-4)GlcNAc(b1-2)Man(a1-3)[Man(a1-6)]Man(b1-4)GlcNAc(b1-4)GlcNAc
How it was run: as §1

[13] = biological target: Gal(b1-4)GlcNAc(b1-2)Man(a1-6)Man(b1-4)GlcNAc(b1-4)GlcNAc
How it was run: as §1

[14] = biological target: Gal(b1-4)GlcNAc(b1-2)Man(a1-6)[GlcNAc(b1-2)Man(a1-3)]Man(b1-4)GlcNAc(b1-4)GlcNAc
How it was run: as §1

[15] = biological target: Gal(b1-4)GlcNAc(b1-2)Man(a1-6)[Man(a1-3)]Man(b1-4)GlcNAc(b1-4)GlcNAc
How it was run: as §1

[16] = biological target: Gal(b1-4)GlcNAc(b1-2)[Gal(b1-4)GlcNAc(b1-4)]Man(a1-3)[Gal(b1-4)GlcNAc(b1-2)Man(a1-6)]Man(b1-4)GlcNAc(b1-4)GlcNAc
How it was run: as §1

[17] = biological target: Gal(b1-4)GlcNAc(b1-2)[Gal(b1-4)GlcNAc(b1-4)]Man(a1-3)[Gal(b1-4)GlcNAc(b1-2)[Gal(b1-4)GlcNAc(b1-6)]Man(a1-6)]Man(b1-4)GlcNAc(b1-4)GlcNAc
How it was run: as §1

[18] = biological target: Gal(b1-4)GlcNAc(b1-2)[Gal(b1-4)GlcNAc(b1-4)]Man(a1-3)[GlcNAc(b1-4)][Gal(b1-4)GlcNAc(b1-2)Man(a1-6)]Man(b1-4)GlcNAc(b1-4)GlcNAc
How it was run: as §1

[19] = biological target: Gal(b1-4)GlcNAc(b1-2)[Gal(b1-4)GlcNAc(b1-4)]Man(a1-3)[GlcNAc(b1-4)][Gal(b1-4)GlcNAc(b1-2)[Gal(b1-4)GlcNAc(b1-6)]Man(a1-6)]Man(b1-4)GlcNAc(b1-4)GlcNAc
How it was run: as §1

[20] = biological target: Gal(b1-4)GlcNAc(b1-2)[Gal(b1-4)GlcNAc(b1-6)]Man(a1-6)[Gal(b1-4)GlcNAc(b1-2)Man(a1-3)]Man(b1-4)GlcNAc(b1-4)GlcNAc
How it was run: as §1

[21] = biological target: Gal(b1-4)GlcNAc(b1-2)[Gal(b1-4)GlcNAc(b1-6)]Man(a1-6)[Gal(b1-4)GlcNAc(b1-2)Man(a1-3)]Man(b1-4)GlcNAc(b1-4)[Fuc(a1-6)]GlcNAc
How it was run: as §1

[22] = biological target: Gal(b1-4)GlcNAc(b1-2)[Gal(b1-4)GlcNAc(b1-6)]Man(a1-6)[GlcNAc(b1-4)][Gal(b1-4)GlcNAc(b1-2)Man(a1-3)]Man(b1-4)GlcNAc(b1-4)GlcNAc
How it was run: as §1

[23] = biological target: Gal(b1-4)GlcNAc(b1-2)[Gal(b1-4)GlcNAc(b1-6)]Man(a1-6)[GlcNAc(b1-4)][Gal(b1-4)GlcNAc(b1-2)[Gal(b1-4)GlcNAc(b1-4)]Man(a1-3)]Man(b1-4)GlcNAc(b1-4)[Fuc(a1-6)]GlcNAc
How it was run: as §1

[24] = biological target: Gal(b1-4)GlcNAc(b1-3)Gal(b1-3)GalNAc
How it was run: as §1

[25] = biological target: Gal(b1-4)GlcNAc(b1-3)Gal(b1-3)GlcNAc
How it was run: as §1

[26] = biological target: Gal(b1-4)GlcNAc(b1-3)Gal(b1-4)Glc
How it was run: as §1

[27] = biological target: Gal(b1-4)GlcNAc(b1-3)Gal(b1-4)GlcNAc
How it was run: as §1

[28] = biological target: Gal(b1-4)GlcNAc(b1-3)Gal(b1-4)GlcNAc(b1-2)Man(a1-3)[Gal(b1-4)GlcNAc(b1-3)Gal(b1-4)GlcNAc(b1-2)Man(a1-6)]Man(b1-4)GlcNAc(b1-4)GlcNAc
How it was run: as §1

[29] = biological target: Gal(b1-4)GlcNAc(b1-3)Gal(b1-4)GlcNAc(b1-2)Man(a1-3)[Gal(b1-4)GlcNAc(b1-3)Gal(b1-4)GlcNAc(b1-2)Man(a1-6)]Man(b1-4)GlcNAc(b1-4)[Fuc(a1-6)]GlcNAc
How it was run: as §1

[30] = biological target: Gal(b1-4)GlcNAc(b1-3)Gal(b1-4)GlcNAc(b1-2)[Gal(b1-4)GlcNAc(b1-3)Gal(b1-4)GlcNAc(b1-6)]Man(a1-6)[Gal(b1-4)GlcNAc(b1-3)Gal(b1-4)GlcNAc(b1-2)Man(a1-3)]Man(b1-4)GlcNAc(b1-4)GlcNAc
How it was run: as §1

[31] = biological target: Gal(b1-4)GlcNAc(b1-3)Gal(b1-4)GlcNAc(b1-2)[Gal(b1-4)GlcNAc(b1-3)Gal(b1-4)GlcNAc(b1-6)]Man(a1-6)[Gal(b1-4)GlcNAc(b1-3)Gal(b1-4)GlcNAc(b1-2)Man(a1-3)]Man(b1-4)GlcNAc(b1-4)[Fuc(a1-6)]GlcNAc
How it was run: as §1

[32] = biological target: Gal(b1-4)GlcNAc(b1-3)Gal(b1-4)GlcNAc(b1-3)Gal(b1-4)GlcNAc
How it was run: as §1

[33] = biological target: Gal(b1-4)GlcNAc(b1-3)Gal(b1-4)GlcNAc(b1-3)Gal(b1-4)GlcNAc(b1-2)Man(a1-3)[Gal(b1-4)GlcNAc(b1-3)Gal(b1-4)GlcNAc(b1-3)Gal(b1-4)GlcNAc(b1-2)Man(a1-6)]Man(b1-4)GlcNAc(b1-4)GlcNAc
How it was run: as §1

[34] = biological target: Gal(b1-4)GlcNAc(b1-3)Gal(b1-4)GlcNAc(b1-3)Gal(b1-4)GlcNAc(b1-2)Man(a1-3)[Gal(b1-4)GlcNAc(b1-3)Gal(b1-4)GlcNAc(b1-3)Gal(b1-4)GlcNAc(b1-2)Man(a1-6)]Man(b1-4)GlcNAc(b1-4)[Fuc(a1-6)]GlcNAc
How it was run: as §1

[35] = biological target: Gal(b1-4)GlcNAc(b1-3)Gal(b1-4)GlcNAc(b1-3)Gal(b1-4)GlcNAc(b1-2)[Gal(b1-4)GlcNAc(b1-3)Gal(b1-4)GlcNAc(b1-3)Gal(b1-4)GlcNAc(b1-6)]Man(a1-6)[Gal(b1-4)GlcNAc(b1-3)Gal(b1-4)GlcNAc(b1-3)Gal(b1-4)GlcNAc(b1-2)Man(a1-3)]Man(b1-4)GlcNAc(b1-4)[Fuc(a1-6)]GlcNAc
How it was run: as §1

[36] = biological target: Gal(b1-4)GlcNAc(b1-3)Gal(b1-4)GlcNAc(b1-3)Gal(b1-4)GlcNAc(b1-3)Gal(b1-4)GlcNAc(b1-2)Man(a1-3)[Gal(b1-4)GlcNAc(b1-3)Gal(b1-4)GlcNAc(b1-3)Gal(b1-4)GlcNAc(b1-3)Gal(b1-4)GlcNAc(b1-2)Man(a1-6)]Man(b1-4)GlcNAc(b1-4)GlcNAc
How it was run: as §1

[37] = biological target: Gal(b1-4)GlcNAc(b1-3)Gal(b1-4)GlcNAc(b1-3)Gal(b1-4)GlcNAc(b1-3)Gal(b1-4)GlcNAc(b1-2)Man(a1-3)[Gal(b1-4)GlcNAc(b1-3)Gal(b1-4)GlcNAc(b1-3)Gal(b1-4)GlcNAc(b1-3)Gal(b1-4)GlcNAc(b1-2)Man(a1-6)]Man(b1-4)GlcNAc(b1-4)[Fuc(a1-6)]GlcNAc
How it was run: as §1

[38] = biological target: Gal(b1-4)GlcNAc(b1-3)Gal(b1-4)GlcNAc(b1-3)Gal(b1-4)GlcNAc(b1-3)Gal(b1-4)GlcNAc(b1-2)[Gal(b1-4)GlcNAc(b1-3)Gal(b1-4)GlcNAc(b1-3)Gal(b1-4)GlcNAc(b1-3)Gal(b1-4)GlcNAc(b1-6)]Man(a1-6)[Gal(b1-4)GlcNAc(b1-3)Gal(b1-4)GlcNAc(b1-3)Gal(b1-4)GlcNAc(b1-3)Gal(b1-4)GlcNAc(b1-2)Man(a1-3)]Man(b1-4)GlcNAc(b1-4)[Fuc(a1-6)]GlcNAc
How it was run: as §1

B1: LCA (Lens culinaris), P02870 (protein)
chain: MASLQTQMISFYLIFLSILLTTIFFFKVNSTETTSFSITKFSPDQKNLIFQGDGYTTKGKLTLTKAVKSTVGRALYSTPIHIWDRDTGNVANFVTSFTFVIDAPSSYNVADEFTFFIAPVDTKPQTGGGYLGVFNSKEYDKTSQTVAVEFDTFYNAAWDPSNKERHIGIDVNSIKSVNTKSWNLQNGERANVVIAFNAATNVLTVTLTYPNSLEEENVTSYTLNEVVPLKDVVPEWVRIGFSATTGAEFAAHEVHSWSFHSELGGTSSSKQAADA
[1]
  glycan array binding signal (z-score): -0.199
[2]
  glycan array binding signal (z-score): -0.211
[3]
  glycan array binding signal (z-score): -0.184
[4]
  glycan array binding signal (z-score): -0.209
[5]
  glycan array binding signal (z-score): -0.219
[6]
  glycan array binding signal (z-score): 0.157
[7]
  glycan array binding signal (z-score): 3.7
[8]
  glycan array binding signal (z-score): -0.251
[9]
  glycan array binding signal (z-score): -0.219
[10]
  glycan array binding signal (z-score): 0.015
[11]
  glycan array binding signal (z-score): -0.228
[12]
  glycan array binding signal (z-score): -0.241
[13]
  glycan array binding signal (z-score): -0.22
[14]
  glycan array binding signal (z-score): 0.021
[15]
  glycan array binding signal (z-score): -0.2
[16]
  glycan array binding signal (z-score): -0.193
[17]
  glycan array binding signal (z-score): -0.236
[18]
  glycan array binding signal (z-score): -0.245
[19]
  glycan array binding signal (z-score): -0.235
[20]
  glycan array binding signal (z-score): -0.294
[21]
  glycan array binding signal (z-score): 4.72
[22]
  glycan array binding signal (z-score): -0.234
[23]
  glycan array binding signal (z-score): -0.263
[24]
  glycan array binding signal (z-score): -0.245
[25]
  glycan array binding signal (z-score): -0.225
[26]
  glycan array binding signal (z-score): -0.205
[27]
  glycan array binding signal (z-score): -0.212
[28]
  glycan array binding signal (z-score): 0.183
[29]
  glycan array binding signal (z-score): 4.42
[30]
  glycan array binding signal (z-score): -0.22
[31]
  glycan array binding signal (z-score): 3.71
[32]
  glycan array binding signal (z-score): -0.22
[33]
  glycan array binding signal (z-score): 0.215
[34]
  glycan array binding signal (z-score): 4.2
[35]
  glycan array binding signal (z-score): 3.1
[36]
  glycan array binding signal (z-score): -0.206
[37]
  glycan array binding signal (z-score): 3.87
[38]
  glycan array binding signal (z-score): 2.63
